Source: publication PMC4336329 (PLoS ONE, 2015)
Hit rate of the full screen: of about 310,000 compounds, about 2,200 (0.71%) showed an effect of 50% or more. Effects have a minus sign here. The list shows a part of the results.

These compounds were tested against human ether-à-go-go-related gene (hERG) potassium channel (human, UniProt Q12809) (assay: primary screen, population patch clamp on CHO cells stably expressing hERG).
Chain of human ether-à-go-go-related gene (hERG) potassium channel (Q12809 whole entry, looked up): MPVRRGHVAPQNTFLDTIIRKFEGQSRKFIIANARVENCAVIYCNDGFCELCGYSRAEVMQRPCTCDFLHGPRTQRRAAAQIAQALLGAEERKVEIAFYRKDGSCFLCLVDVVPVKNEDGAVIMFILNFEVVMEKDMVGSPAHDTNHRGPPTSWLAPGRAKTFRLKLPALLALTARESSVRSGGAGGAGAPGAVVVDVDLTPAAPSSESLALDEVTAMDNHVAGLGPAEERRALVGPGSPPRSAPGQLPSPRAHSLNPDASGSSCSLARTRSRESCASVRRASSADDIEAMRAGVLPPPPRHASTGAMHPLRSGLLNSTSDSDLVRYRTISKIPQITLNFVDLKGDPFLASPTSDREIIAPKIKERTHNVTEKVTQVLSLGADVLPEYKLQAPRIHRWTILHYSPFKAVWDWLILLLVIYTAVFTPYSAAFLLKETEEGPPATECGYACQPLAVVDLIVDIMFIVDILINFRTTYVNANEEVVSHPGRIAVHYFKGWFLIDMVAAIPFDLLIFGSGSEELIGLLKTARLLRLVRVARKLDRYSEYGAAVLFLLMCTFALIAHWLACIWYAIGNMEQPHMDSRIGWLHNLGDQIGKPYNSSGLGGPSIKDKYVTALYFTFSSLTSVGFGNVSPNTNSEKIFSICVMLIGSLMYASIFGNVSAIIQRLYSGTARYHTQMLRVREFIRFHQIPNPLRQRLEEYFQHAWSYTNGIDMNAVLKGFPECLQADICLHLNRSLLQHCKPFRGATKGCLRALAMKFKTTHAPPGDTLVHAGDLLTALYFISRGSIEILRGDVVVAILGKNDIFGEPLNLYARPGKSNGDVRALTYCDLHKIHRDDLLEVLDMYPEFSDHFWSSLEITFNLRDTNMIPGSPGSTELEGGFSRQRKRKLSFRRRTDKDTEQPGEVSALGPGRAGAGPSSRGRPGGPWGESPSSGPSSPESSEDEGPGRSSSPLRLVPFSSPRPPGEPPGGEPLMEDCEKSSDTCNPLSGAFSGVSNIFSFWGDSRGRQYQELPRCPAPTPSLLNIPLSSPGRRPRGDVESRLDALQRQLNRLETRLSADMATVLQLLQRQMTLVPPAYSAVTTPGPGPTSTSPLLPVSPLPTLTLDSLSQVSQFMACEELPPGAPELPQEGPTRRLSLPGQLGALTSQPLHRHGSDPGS

| SMILES | hERG current change (%, negative = inhibition) at 1uM [%] |
| --- | --- |
| Cc1ccnc(NC(c2cccnc2)c2ccc3cccnc3c2O)c1 (stereo not shown) | 12.1 |
| CC(=O)c1ccc(OCC(=O)N(CCC2=CCCCC2)c2c(N)n(Cc3ccccc3)c(=O)[nH]c2=O)cc1 | -1.26 |
| CC(=O)N/C(N)=N/c1nc(=O)c2ccccc2s1 | 6.82 |
| Cc1ccc(S(=O)(=O)NC(C)(C)CN2CCC(Cc3ccccc3)CC2)cc1.O=C(O)C(=O)O | -0.184 |
| Cc1ccc(CNC(=O)CCS(=O)(=O)c2ccc3c(c2)NC(=O)CS3)cc1 | 3.54 |
| O=C(Cn1cnc2c(cnn2-c2ccc(Cl)cc2)c1=O)NCC1CCCO1 (stereo not shown) | -0.591 |
| CN(Cc1ccccc1)c1nc2c(c(=O)[nH]c(=O)n2C)n1Cc1ccccc1Cl | -3.61 |
| O=C1c2ccccc2C(=O)N1Cc1ccccc1F | 17.8 |
| CCc1ccc(C(=O)NC(CC(C)C)C(=O)O)cc1 (stereo not shown) | -1.75 |
| CCOC(=O)C1CCN(C(=O)NS(=O)(=O)c2ccc(C)cc2)CC1 | 7.63 |
| COc1ccccc1NC(=O)N1CCN(c2ccnc3cc(Cl)ccc23)CC1 | -15.5 |
| CCn1cc(C(=O)OCC(=O)OC2CC(C)CCC2C(C)C)c(=O)c2ccc(C)nc21 (stereo not shown) | -5.64 |
| CCC(C)[C@H](NC(=O)Nc1ccc(S(N)(=O)=O)cc1)C(=O)OC (stereo partly shown) | 15.3 |
| O=C(NCC1CCCO1)C1CCC(N2C(=O)c3ccccc3C2=O)CC1 (stereo not shown) | 5.06 |
| Cc1c(Cl)cccc1NC(=S)N1CCN(Cc2ccccc2)CC1 | 0.485 |
| O=C(COC(=O)c1cc(C(F)(F)F)cc(C(F)(F)F)c1)NCc1ccc(Cl)cc1 | 14.5 |
| COc1ccc2c(c1)-c1nc(N)sc1CC2 | -4.24 |
| CC1(C)N=C(N)N=C(N)N1c1ccc(OCCCOc2ccccc2)c(Cl)c1.CCS(=O)(=O)O | 6.51 |
| Nc1ccc(C(=O)OCc2ccncc2)cc1[N+](=O)[O-] | -1.23 |
| O=c1oc(-c2ccccc2)cc(Cl)c1Cl | 0.467 |
| CC(OC(=O)c1ccncc1)C(=O)Nc1cccc(Cl)c1 (stereo not shown) | 3.81 |
| CC1(C)Oc2ccc(C(=O)Nc3ccccc3F)cc2N(CC(=O)N2CCOCC2)C1=O | 10.6 |

| SMILES | hERG current change (%, negative = inhibition) at 1uM [%] |
| --- | --- |
| Cn1cc(/C=C2\SC(=O)N(c3ccccc3)C2=O)c2ccccc21 | 8.84 |
| CCOC(=O)c1nn(-c2ccccc2C)c(=O)cc1OCC(=O)N1CCN(c2ccccc2)CC1 | 10 |
| CCOc1ccc(-n2c(SCC(=O)Nc3cc(C)on3)nc3c(c2=O)SCC3)cc1 | 14.6 |
| N#CCCn1c(SCC(=O)c2c[nH]c3ccccc23)nc2ccccc21 | 7.16 |
| CC(OC(=O)CNC(=O)C12CC3CC(CC(C3)C1)C2)C(=O)Nc1ncc(Cl)cc1Cl (stereo not shown) | 2.78 |
| CC(O)CCc1nc2ccc(C(=O)O)cc2[nH]1.Cl (stereo not shown) | 14.9 |
| CC1=NN(c2ccccc2)C(=O)/C1=C/C=C/c1ccccc1 | 5.79 |
| Cc1[nH]c(C)c(S(=O)(=O)N(Cc2ccccc2)C(C)(C)C)c1C(=O)N1CCCC1 | 5.26 |
| CC(=O)Nc1nc2c(c3c1c(=O)oc1ccccc13)CCCCC2 | -1.87 |
| O=C(CSc1nnnn1-c1ccccc1)Nc1ncc(Cc2cccc(Cl)c2Cl)s1 | 16 |
| C=CCOC(=O)C1=C(C)NC(C)=C(C(=O)OCC=C)C1c1ccc(O)cc1 | -1.12 |
| O=[n+]1c2c(n([O-])c3c1CCC3)CCCC2 | 13.5 |
| CCOC(=O)C(CC)Sc1nnc2c3cc(C)ccc3n(C)c2n1 (stereo not shown) | 4.1 |
| O=C(CSc1nnc(COc2ccccc2)o1)N1CCCC1 | 5.08 |
| O=C(NCc1cccs1)C1CCN(S(=O)(=O)c2ccc(Cl)cc2)CC1 | 23.3 |
| Cc1cccc(N(C(=O)c2snc(C(N)=O)c2N)C(C(=O)NC2CCCC2)c2ccc(C)o2)c1 (stereo not shown) | 7.28 |
| CCOC(=O)c1sc(=NC(=O)c2cc(OC)c(OC)c(OC)c2)n(C)c1C | 11.4 |
| O=C(NCc1ccc(F)cc1)C1CC(=O)N(Cc2ccco2)C1 (stereo not shown) | -2.73 |
| N#CNC(=Nc1ccccc1)SCc1ccc(C(=O)O)cc1 | 7.67 |
| CSc1nc(Oc2cccc(C(F)(F)F)c2)cc(C(F)(F)F)n1 | 9.99 |
| COc1cccc(C(=O)N2CCOCC2)c1 | 20.5 |
| COc1ccc(S(=O)(=O)NCC(c2cccnc2)N2CCN(C)CC2)cc1C (stereo not shown) | -24.4 |

| SMILES | hERG current change (%, negative = inhibition) at 1uM [%] |
| --- | --- |
| Cc1cc(Cl)ccc1NC(=O)C1COc2ccccc2O1 (stereo not shown) | 8.71 |
| CC(=O)NC1CC2CCCC(C1)N2S(=O)(=O)c1ccccc1 (stereo not shown) | 14.7 |
| CCOC(=O)CNC(=S)SC | 7.2 |
| CC(Sc1nnc(CNC(=O)c2ccccc2F)n1C)C(=O)Nc1nccs1 (stereo not shown) | 17.1 |
| COc1ccc(C2=NOC(C(=O)Nc3ccc4c(c3)OCO4)C2)cc1OC (stereo not shown) | 5.15 |
| COc1cc2[nH]c(=O)n(-c3ccccc3)c(=O)c2cc1OC | 13.9 |
| S=C(NCc1ccncc1)Nc1ccc(Cl)cc1Cl | 8.64 |
| O=C(O)c1ccccc1N(Cc1ccccc1)C(=O)COc1ccccc1 | 8.18 |
| O=C(Cc1c[nH]c2ccccc12)NC1(C(=O)NC2CCCCC2)CCCCC1 | -3.56 |
| O=C(CCCCCNC(=O)N1CCn2c1nc1ccccc12)N[C@@H](C(=O)O)c1ccccc1 | -3.95 |
| C=CCn1c(SCC(=O)N(CCO)CCO)nc2sc3c(c2c1=O)CCC3 | 13.5 |
| CN(Cc1ccccc1)C(=O)c1cccnc1 | 10.5 |
| O=C(NC(c1ccccc1)C(Cl)(Cl)Cl)c1ccccc1 (stereo not shown) | 4.9 |
| O=C(Nc1ccc(Cl)cc1)OCCn1nnnc1C(c1ccccc1)N1CCOCC1 (stereo not shown) | -1.81 |
| Cc1ccc(NC(=O)C2(S(=O)(=O)c3ccc(Cl)cc3)CC2)c(Br)c1 | 2.54 |
| O=C(NCc1ccccc1Cl)c1ccc(Br)o1 | 21.7 |
| CC(=O)Nc1ccc(S(=O)(=O)NCc2ccncc2)cc1 | -5.52 |
| CSc1ccccc1C(=O)C1CCCN(C(=O)c2csnn2)C1 (stereo not shown) | -13.5 |
| Cc1oc2nc(SCC(=O)N3CCCCC3)nc(N)c2c1C | 10.3 |
| CCCOc1ccc(-c2csc(N)n2)cc1[N+](=O)[O-] | 11.1 |
| CCOC(=O)N1CCC2(CC1)C(C(=O)C13CC4CC(CC(C4)C1)C3)C2(C#N)C#N (stereo not shown) | 2.05 |
| CC[C@H](C)[C@H](NC(N)=O)C(=O)Nc1ccc(C)cc1 | 8.31 |

| SMILES | hERG current change (%, negative = inhibition) at 1uM [%] |
| --- | --- |
| COc1ccc(OC2CCN(S(=O)(=O)c3ccccc3)CC2)cc1 | 15.3 |
| O=C(c1cc2ccccn2n1)N1CCC2(CC1)OCCO2 | 3.43 |
| CC1CCN(CC(=O)c2c[nH]c3ccccc23)CC1 | -6.87 |
| CCOC(=O)C1CCCN(C2=NC(=O)/C(=C/c3ccc(O)c(OCC)c3)S2)C1 (stereo not shown) | -1.27 |
| COCCN(C(=S)Nc1cc(C)cc(C)c1)C(C)c1cccs1 (stereo not shown) | 10.7 |
| Cc1cccc(C)c1NC(=O)CNC(=O)CNC(=O)c1ccc2c(c1)OCO2 | 2.56 |
| CCCOc1ccc(N2C(=O)C3C(C(C)C)NC4(C(=O)c5ccccc5C4=O)C3C2=O)cc1 (stereo not shown) | 3.12 |
| O=C1c2ccccc2C(=O)N1CCCCN(C(=O)c1cccc([N+](=O)[O-])c1)c1ccc(Cl)cc1 | 3.85 |
| COc1ccccc1NC(=S)N(CCCN1CCOCC1)Cc1cn(C)c2ccccc12 | -1.03 |
| Clc1cccc(CN2CCc3c([nH]c4ccccc34)C2)c1 | 0.287 |
| COc1ccc(-c2oc(=O)c3cc(OC)c(OC)cc3c2-c2cc(F)cc(OC)c2)cc1 | 17.7 |
| COCCNC(C)C(=O)Nc1ccc(Br)cc1.Cl (stereo not shown) | 17.6 |
| CCOc1cc(N2CCOCC2)c(OCC)cc1NC(=O)COC(=O)C1CCCN1S(=O)(=O)c1ccccc1F (stereo not shown) | 0.718 |
| O=C(C1CCN(S(=O)(=O)c2ccccc2F)CC1)N1CCc2ccccc21 | 7.02 |
| CCOC(=O)c1cnc2oc3ccccc3n2c1=O | 10.7 |
| Cn1nc(C(C)(C)C)cc1NC(=O)Nc1cc(Cl)cc(Cl)c1 | 11 |
| CC1CCN(c2nc3c(=O)[nH]c(N)nc3n2[C@@H]2O[C@H](CO)[C@@H](O)[C@H]2O)CC1 | 17.2 |
| Cc1ccc(CNc2nc3ccccc3n3cnnc23)cc1 | 7.42 |
| c1ccc(C2NCCn3cccc32)cc1 (stereo not shown) | 12.8 |
| CCN(CC)C(=O)Cn1cc(C(=O)C(=O)NCCc2c[nH]c3ccccc23)c2ccccc21 | 11.2 |
| COc1cc(OC)c2c(-c3ccccc3)cc(=O)oc2c1C(CCN1CCCC(C)C1)c1ccc(N(C)C)cc1 (stereo not shown) | 8.15 |
| Fc1ccc2[nH]c3c(NCc4ccccc4)ncnc3c2c1 | 15.4 |
